The labels stand for the following.
B1: LINE1-mini (parent)
chain: GGCAGAGCUCAACACAGCGUGGCAAAGUGGCUGUGGCUAGACUGCC

Read counts are not given, so values of variants with three or more changes are uncertain.

Consider 112 variants from the RNAGym collection of RNA variant scans (doi:10.7554/elife.90254).

In the data set the parent is B1. Put plainly: self-cleavage, relative activity (ratio to wild type); higher = more cleavage; in vitro, sequencing; the parent is a self-cleaving ribozyme.
Take GGCAGAGCUCAGCACAGCGUGGCAAAGUGGCUGUGGCUAGUGUGCC: the self-cleavage is 0.05.
In the case of GGCAGAGCUCAGCACUACGUGGCAAAGUGGCUGUGGCUAGACUGCC it was 0.27; in that of GGCAGAGCUCACCACAGCGUGGCAAAGUGGCUGUGGCAAGACUGUC, 0.02.
In the case of GGCAGAGCUCACCACAGCGUGGCAAAGUGGCUGUGGCAAGACUGGC it was 0.02.
Consider GGCAGAGCUCACCACAGCGUGGCAAAGUGGCUGUGGCUAAACUGCG, for which the self-cleavage was 0.03.
For GGCAGAGCUCAGAACAGCGUUCCAAAGUGGCUGUGGCUAUACUGCC, the self-cleavage amounted to 0.01.
Regarding GGCAGAGCUCACCACAGCGUGGCAAAGUGGCUGUUGCCAGACUGCC, the self-cleavage came to 0.
For GGCAGAGCUCACCACAGCGCGGCAAAGUGGCUGUUGCUACACUGCC, the self-cleavage came to 0.01.
To GGCAGAGCUCAGCACAGCGUGGAAAAGAGGCUGUGGCUUGACUGCC belongs 0.01.
In the case of GGCAGAGCUCACCACAGCGUGGCAAAGUGGCUGUUGCAGGACUGCC it was 0.01.
In the case of GGCAGAGCUCAGGACAGCGUUGCAAAGUGGCUGUGGCUAGACUGCC it was 0.03; in that of GGCAGAGCUCAGCACAGAGUGGCAGAGUGGCUGUGGCUAGACUGCC, 0.03; in that of GGCAGAGCUCAGCACCGCGUUGCAAAGUGACUGUGGCUAGAUUGCC, 0.1.
On to GGCAGAGCUCAGCACAGCGUGGGUAAGUGGCUGUGGCUAGCCUGCC, for which the self-cleavage was 0.02.
As to GGCAGAGCUCACCACAGCGUGGCAAAGUGGCUGUCGCUGGACUGCC, the self-cleavage was 0.03.
On to GGCAGAGCUCACCACAGCGGGGCAAAGUGGCUGUGGCUAGAGUGAC, for which the self-cleavage was 0.02.
To GGCAGAGCUCAGCACAGCGUGGCAACGUGACUGUGGCUUGACUGCC belongs 0.03.
In the case of GGCAGAGCUCAGUACAGCGUGGCAAAGUGGCUGAGGCUAGACUGCC it was 0.07; in that of GGCAGAGCUCAGAACAUCGUGGCAAAGUGCCUGUGGCCAGAUUGCC, 0.03.
To GGCAGAGCUCAGAACAGCGUGGCAAAGUUGCUGUGGCUAGACUGGA belongs 0.09; to GGCAGAGCUCAGCACCGCCUGGCAAAGUGGCUGUGGCUAGACUGCC, 0.12; to GGCAGAGCUCAGCACAGCGUGGCAAAGUGGCUGUGGCUAGUCUACC, 0.03.
For the variant GGCAGAGCUCAGCACAGCGUGGCUAAAUUACUGUGCCUAGACUGCC, the self-cleavage is 0.1.
GGCAGAGCUCAGGACAGCGUGGCAAAGUGGCUGUGGCUUGACUGCC: the self-cleavage turned out to be 0.
To GGCAGAGCUCAGCACAGUGUGGCAGAGUGGCUGUGGCUAGACUGCC belongs 0.01; to GGCAGAGCUCAGCACAGCGUGGCUAAGUGGCUGUGACUAGACUGCC, 0.06.
With GGCAGAGCUCAGCAUAGCGUGACAAAGUGGCUGUGGCUAGACUGCC, the self-cleavage is 0.
As for GGCAGAGCUCAGCACGCCGUGGCAAAGUGGCUGUGGCUAUACUGCC, the self-cleavage came to 0.01.
To GGCAGAGCUCAGCACAGAGUGGCAUAGUGGCUGUGGCUAGUCUGCC belongs 0.04; to GGCAGAGCUCACCACAGCGCGGCAGAGUGGCUGUGGCUAGACUGCC, 0; to GGCAGAGCUCACCACAGCGUGGCAAAGUGGCUGUGUCUAGACUGCU, 0.01.
In the case of GGCAGAGCUCAGGACAGCGUGGCAAAGUGGCUGUGGAUAGACUGCC it was 0.04; in that of GGCAGAGCUCAGCACAGCGUGGCACAGUGGCUGUGGCUAGUCUGCC, 0.01; in that of GGCAGAGCUCAGCUCAGCGUGGCAAAUUGGCUGUGGCUAGACUACC, 0.11.
In the case of GGCAGAGCUCAGCAUAGCGUGGCAAAGUGGCUUUGGCUAGACUGCC it was 0.03; in that of GGCAGAGCUCACCACAGCGUGGCAAAGAAGCUGUGGCUAGACAGUC, 0.01.
Regarding GGCAGAGCUCAGUACAACGUGGCUAAGUGGCUGUGGCUAGACUUCC, the self-cleavage worked out at 0.01.
On to GGCAGAGCUCAGCUAAGCGUGGCAAAGUGGCUGUGGCUAGAUUGCC, for which the self-cleavage was determined as 0.07.
To GGCAGAGCUCAGCAAAGCAUACCAAAGUGGCUGUGGCUAGACUGCC belongs 0.02; to GGCAGAGCUCAGCUCACCGUAGCAAAGUGGCUGUGGCUAGUCUGCC, 0.01; to GGCAGAGCUCAGCACAGCGUGGAAAAUUGGCUGUGGCUAGACUGCC, 0.01.
To GGCAGAGCUCAGCACAGGGUGGCAUAGUGGCUGUGGUUAGACUGCC belongs 0; to GGCAGAGCUCACCACAGCGUGGCAAAGUGGCUGUGACUAGGCUGCC, 0.09; to GGCAGAGCUCAGCAUAGCGUGGCAAACUUGUUGUGUCUAGACUGCC, 0.02.
In the case of GGCAGAGCUCAGCAUAGCGUGGCGAAGUGGCUGUGGCUACACUGCU it was 0; in that of GGCAGAGCUCAGCACGGCGUGGCAAAGUGGCUGUGGCUAGAGUGCC, 0.01.
As for GGCAGAGCUCAGAACAGCGUGGCAAAGUGGCUGUGUCUAGCUUGCC, the self-cleavage stood at 0.02.
In the case of GGCAGAGCUCAGCACCACGUGCCAAAGUGGCAGUGGCUAGACUGCC, the self-cleavage was 0.01.
To GGCAGAGCUCAGUACAGCGUGGCAAAGAGGCUGUGGCUAGACUGCC belongs 0.02; to GGCAGAGCUCACCACAGCGUGGCAAAGUGGCUCUGGCCAGAAUGCG, 0.01; to GGCAGAGCUCAGAACACCGUGGCAAAGUGGCUGUGGCUAGAUUGCC, 0.01.
As to GGCAGAGCUCAGUACAGCGUGGCAAAUUGGCUUUAGCCAAACUGCC, the self-cleavage was found to be 0.01.
In the case of GGCAGAGCUCAGUACAGCAUGGCAAAAUUGCUGUGGCUAGACUGCC, the self-cleavage worked out at 0.01.
Turning to GGCAGAGCUCACCACAGCGUGGCAAAGUGGCCGAUUAUAGACUGCC, the self-cleavage was found to be 0.01.
To GGCAGAGCUCAGCACGGCGUGGCAACGUGGCUGUGGCUAGACUGCC belongs 0; to GGCAGAGCUCAGUACAGCGAGGCAAAGUGGCUGUGGCUAGACUGCC, 0.02; to GGCAGAGCUCACCACAGCGUGGCAAAGUGGCUAUGGCUAGACAGCC, 0.01.
As for GGCAGAGCUCACCACAGCGUGGCAAAGUGGCUUCGGCUAGACUGCC, the self-cleavage came out at 0.02.
In the case of GGCAGAGCUCACCACAGCGUGGCAAAGUGUCUGUGGCUAUACUGCC it was 0.06; in that of GGCAGAGCUCAGCACAGCGUGGAAAAUUGCCUGUGGCUAGACUGCC, 0.08; in that of GGCAGAGCUCAGGACAGCGUGGCAGUGUGUCUGUGGGUAGACUACC, 0.03.
For the variant GGCAGAGCUCACCACAGCGUGGCAAAGUGGCUGGAGCCAGACUGCC, the self-cleavage was determined as 0.06.
For GGCAGAGCUCAGAACAGCGUGGCAAAGUGGCUGUGUCUAGAUUGCC, the self-cleavage amounted to 0.04.
As to GGCAGAGCUCAGCAUAGCGGGGCUAAGUGGCUGUGGCUAUACUGCC, the self-cleavage was determined as 0.
To GGCAGAGCUCAGCACAGUGUGUCAAAGUGGCUGUGGCUUGACUGCC belongs 0.02.
On to GGCAGAGCUCAGCACAGUGUGGCAAAGUUGCUGUGGCUAGACUGCC, for which the self-cleavage turned out to be 0.
In the case of GGCAGAGCUCAGCACAGCGUGGCAACGUGGCUGUAGCUAUACUGCC it was 0.01; in that of GGCAGAGCUCAGGACAGCGUGGCAAAGUGGCUGUGUCAAGACUGCC, 0.06; in that of GGCAGAGCUCAGCACAGCGUGGCCAAGUGGCUGUGGCUAGACUUCC, 0.
Regarding GGCAGAGCUCACCACAGCGUGGCAAAGUGGCUGUGGCUAGACUUCU, the self-cleavage turned out to be 0.02.
Turning to GGCAGAGCUCACCACAGCGGGGCAAGGUGGCUGUGGCUAGACUGCC, the self-cleavage came out at 0.16.
Regarding GGCAGAGCUCAGCACAGAGUGGCAAACUGGCUUUGGCUAGACUGUC, the self-cleavage was found to be 0.13.
Take GGCAGAGCUCAGCAAAGCGUGGCAAGGUGGCUGUGGCUAGAAUGCC: the self-cleavage stood at 0.01.
In the case of GGCAGAGCUCAGUCCAGCGUGGCAAAGUGGCUGUGGCUAGACUGCC it was 0.03; in that of GGCAGAGCUCACCACAGCGUGGCAAAGUGGCUGGGGCUAGCCUGCC, 0.05; in that of GGCAGAGCUCAGUACAACUUGGCAAAGUGGCUGUGGCUAGACUGCC, 0.02.
In the case of GGCAGAGCUCAGUACAGCGUGGCAAAGUGUGUGUUGCUAGACUGCC it was 0.04.
In the case of GGCAGAGCUCAGCCCAGCGUGGCAACGUGUCUGUGGCUAGACUGCC it was 0.01; in that of GGCAGAGCUCAGCACAGAGUGGAAUAGUGGCUGUGGCUAGACUGCC, 0.02.
GGCAGAGCUCAGUACAGCGUGGUAAAGUGGCUGUGGCUAGACUGCC: the self-cleavage came to 0.02.
To GGCAGAGCUCACCACAGCGGGACAAAGUGGCUGUGGCUAGACUGCC belongs 0.
To GGCAGAGCUCAGCACAGAGUGGCAAAGUGGCUGUGCCUAGACUGCC belongs 0.05.
In the case of GGCAGAGCUCAGCGCAGCGCGGUAAAGUGGCUGUGGCUAGACUGCC it was 0.01; in that of GGCAGAGCUCACCACAGCGUGGCAAAGUGGCUGUCGCUAGAAUGCC, 0.05.
As for GGCAGAGCUCAGCAUAUCGAGGCAAAGUUGCUGUGGCUAGACUGCC, the self-cleavage stood at 0.01.
As for GGCAGAGCUCAGCAGAACGUGGCAAAGUGGCUGUGGCUAGACAGCC, the self-cleavage was 0.17.
In the case of GGCAGAGCUCAGGACAGCGUGGCAAAGUGGCUAUGGCUAGACUGCC it was 0.03; in that of GGCAGAGCUCAGCACAGCGUGGAAAAGUGGCAGUGGCUAGACUGCC, 0.03; in that of GGCAGAGCUCAGCACGGCGUGGCAAAGUCGCUGUGGCUAGACUGCC, 0.18.
As for GGCAGAGCUCAGCACAGUGUGGCAAAGUGGCUGUGGUUAGAAUUCC, the self-cleavage worked out at 0.05.
To GGCAGAGCUCAGCACAGCGUGGCAAAGUGGCUGUGGCUGUACUGCC belongs 0; to GGCAGAGCUCAGCACAGCGUGGAAUAGUGGCUGGGGCUAGACUGCC, 0.02.
To GGCAGAGCUCACCACAGCGUGGCAAAGUGGCAGUGGCUAUACUGCC belongs 0.01; to GGCAGAGCUCAGCAUAGCGUGGCAAAGUGGCUGUGGCUAGACUCCC, 0.03.
In the case of GGCAGAGCUCAGCAAAGCGUGGCAAAGUAGCUGUGGCUAGACUUCC, the self-cleavage was 0.04.
To GGCAGAGCUCAGUACAGCGUGUCAAAGUGGCUGUGGCUAGACUCCC belongs 0; to GGCAGAGCUCAGCUCAGCGUGGUAAAGUCGCUGUGGCUAGACUGCC, 0.01.
In the case of GGCAGAGCUCAGGACAGUGUGGCAAAGUGACUGUGACUAGACUGCC it was 0.03; in that of GGCAGAGCUCAGCACAGUGUUGCAAAGUGGCUGUGGCUAGACGGCA, 0.01; in that of GGCAGAGCUCAGGACAGCGUGGCAAAGAGGCUGUGGCUAGACUGCC, 0.01.
For GGCAGAGCUCACCACAGCGUGGCAAAGUGGCCGUCGCUAGACUGCC, the self-cleavage turned out to be 0.03.
In the case of GGCAGAGCUCAGCAAAGCGUGGCACAGUGGCUGUGCCUAGUCUGCC, the self-cleavage is 0.04.
To GGCAGAGCUCAGUACAGCUUGGCAAAGUAGCUGUGGCUAGACUGCC belongs 0.06.
In the case of GGCAGAGCUCAGCACAGCGUGGCGAAGUGGCCGUGGCUAGACUGCC it was 0.01; in that of GGCAGAGCUCAGCUCAGCGUGGCAUAGUGGCUGUGGCGAGACUGCC, 0.01; in that of GGCAGAGCUCAGCCCAGCGUGGCAAAGUGGCUGUGGCUAUACUGCC, 0.01.
Consider GGCAGAGCUCAGCACAGCGUGGCAUAGUGGCUGUGGCUAGACUGCA, for which the self-cleavage was determined as 0.02.
In the case of GGCAGAGCUCACCACAGCGUGGCAAAGUGGCAGUGGCUUGACUGCC it was 0.06; in that of GGCAGAGCUCAGCACAGUUUGGCAAAGUGGCUGUGGUUAGACUGCC, 0.04.
Regarding GGCAGAGCUCAGCACAGCGUGGCAAAGUGGCUGUGGCUCGACUAGC, the self-cleavage came to 0.02.
To GGCAGAGCUCAGCACAGAGUGGCAAAGUGGCUGUGGCUAGACUGGC belongs 0.3; to GGCAGAGCUCAGCACCGCGUGGCAAAGUGGCUGUGGUUAGAUUGAC, 0.19.
